Source: the RNAGym collection of RNA variant scans (doi:10.7554/elife.90254)
The source gives no read counts; variants with many changes may rest on few reads.

B1: LINE1-mini (parent)
chain: GGCAGAGCUCAACACAGCGUGGCAAAGUGGCUGUGGCUAGACUGCC

Variants of: B1
Experiment: self-cleavage, relative activity (ratio to wild type); higher = more cleavage; in vitro, sequencing; the parent is a self-cleaving ribozyme
C13A G27C U32A gave a self-cleavage of 0.04.
For G22U A24U C42U, the self-cleavage was 0.14.
With C3A G36C G44U C46A the self-cleavage was 0.09.
A25U U34A C45G C46U gave a self-cleavage of 0.04.
C31A U32C G33U U34C C42U U43G showed a self-cleavage of 0.02.
In the case of G21U G36C C37U, the self-cleavage is reported as 0.95.
A24C A26G G30U G44A showed a self-cleavage of 0.08.
With G1U G19A G27U C31U G44C the self-cleavage was 0.05.
G5A U9G U43A showed a self-cleavage of 0.32.
C3U C13U G40U C46A showed a self-cleavage of 0.14.
Work on G1C C13U G44C yielded a self-cleavage of 0.05.
G2C G5C A25C G30C gave a self-cleavage of 0.03.
Work on C10G G17A U32C yielded a self-cleavage of 0.03.
Work on C10G A25C C45A yielded a self-cleavage of 0.02.
Variant G7U C13G C15G G27U G44C has a self-cleavage of 0.09.
In the case of C8A C10A A16G C18U G40C, the self-cleavage is reported as 0.08.
G2U G19A U32G G35A showed a self-cleavage of 0.1.
Variant A4G C10A U32A has a self-cleavage of 0.01.
With G7C C8A C23A A25C U34C the self-cleavage was 0.28.
G7C C18A C45A gave a self-cleavage of 0.06.
In the case of C3U C23G G30A, the self-cleavage is reported as 0.41.
With C3A A6C C18A G19U A25G the self-cleavage was 0.09.
In the case of G5A A12G G30C U34C C46U, the self-cleavage is reported as 0.16.
With U9G C23G C31G U32A the self-cleavage was 0.01.
With G2C G5C U20A A41C the self-cleavage was 0.
For A4G A14C G17U, the self-cleavage was 0.26.
G1A G7C U9A A24U G30A gave a self-cleavage of 0.43.
Variant G7A A12U C18U A25C G30U has a self-cleavage of 0.01.
In the case of U9A C13A U20A C23U, the self-cleavage is reported as 0.12.
Variant C3G A6C C8A U32A has a self-cleavage of 0.19.
G1C C15G C31G U38G showed a self-cleavage of 0.
For G2A G19C A26G, the self-cleavage was 0.46.
Variant A6C C31A A39G has a self-cleavage of 0.04.
Variant G1U A6U A11G A14U G19U U32G G36A has a self-cleavage of 0.
G17A G33A C37A showed a self-cleavage of 0.01.
Variant G1A G7C G33C U43C C45A has a self-cleavage of 0.15.
Work on U9G A14U C18U yielded a self-cleavage of 0.18.
For C23U A26U G33U, the self-cleavage was 0.04.
Variant G19A C37A G40U has a self-cleavage of 0.09.
C15A G33C G44A C45G gave a self-cleavage of 0.01.
In the case of G22C G30U C37U G40C C46A, the self-cleavage is reported as 0.02.
C23A G27U U32C C37U C46G gave a self-cleavage of 0.12.
C15U C18U G30A G35A showed a self-cleavage of 0.06.
A12C G17A C23A C42G C46U gave a self-cleavage of 0.01.
Work on G2U A4C U34G yielded a self-cleavage of 0.01.
G2A A25G G36A U38C showed a self-cleavage of 0.06.
In the case of A11U C13A G22C A24U C42G C46U, the self-cleavage is reported as 0.
A4G A16U G44A gave a self-cleavage of 0.04.
Variant A11G C18A G19A has a self-cleavage of 0.01.
A16G C23G C37G gave a self-cleavage of 0.01.
C8A G19C A26U C31U G44C gave a self-cleavage of 0.03.
G2C A4G A12U C18A G27U G29U U34G gave a self-cleavage of 0.
With C3A C8G C13A G36C U43G the self-cleavage was 0.09.
A12C G19A C46A showed a self-cleavage of 0.01.
With G2C C13U A25U G27C G29C C31A the self-cleavage was 0.04.
With C3U A4C C23G the self-cleavage was 0.03.
In the case of C10A A11G C45A, the self-cleavage is reported as 0.02.
In the case of C18G G19A U28C, the self-cleavage is reported as 1.04.
In the case of A4U A11U A26C C31A U32C G33A C37U U38C, the self-cleavage is reported as 0.01.
For G5U C15U G17U G36A A41C, the self-cleavage was 0.05.
G1U G22A A41C C42A C45G gave a self-cleavage of 0.04.
Variant C18G G21U A26G G35U has a self-cleavage of 0.04.
With C10A A25C G44U the self-cleavage was 0.01.
Variant G2U C3U G5A has a self-cleavage of 0.02.
Variant A4G G22A G36C has a self-cleavage of 0.04.
In the case of C13G U20C A26U C45A, the self-cleavage is reported as 0.09.
Variant G17U G22A C23A has a self-cleavage of 0.45.
With G7U A14C C18U G36A the self-cleavage was 0.36.
Work on G7A C37A C46U yielded a self-cleavage of 0.06.
For G7C C23U G40C A41U G44A, the self-cleavage was 0.07.
For C15A U20A C31A U38C, the self-cleavage was 0.01.
Work on C13A C23A U28C yielded a self-cleavage of 0.05.
In the case of G17C U20G G29C G33A C45A, the self-cleavage is reported as 0.
With C3A A11C C31A the self-cleavage was 0.01.
Variant A24U G33U G35C has a self-cleavage of 0.02.
C18U G40U C45A showed a self-cleavage of 0.03.
With G5U C13G A24C G29U the self-cleavage was 0.01.
Work on G5C C37G A39U A41G yielded a self-cleavage of 0.02.
Variant G7C G17U G29U has a self-cleavage of 0.08.
For C8U C23U U32C G35U C37U A39U, the self-cleavage was 0.24.
Work on C3U G30C C42U U43A yielded a self-cleavage of 0.11.
With G19U G29C U38C the self-cleavage was 0.13.
With G2U C10G G30U U43C the self-cleavage was 0.02.
U28G G30A G33A U34A showed a self-cleavage of 0.03.
C10A A14U A41U U43G C45A showed a self-cleavage of 0.01.
C3U A24G G40A showed a self-cleavage of 0.07.
C10G G19A G29U U38G showed a self-cleavage of 0.09.
Work on A24C G27U C45A yielded a self-cleavage of 0.57.
Work on A4C A16U A41C yielded a self-cleavage of 0.04.
C10U A11G C31A gave a self-cleavage of 0.01.
With A4C A14C A16U G22C G30C G36A G40C the self-cleavage was 0.02.
For C3G A4G G27U A39G C42U U43A, the self-cleavage was 0.31.
For A11G A25C U34A, the self-cleavage was 0.02.
Work on G1U U20G G35A yielded a self-cleavage of 0.02.
In the case of G7C C8U U9A C42U, the self-cleavage is reported as 0.06.
With U9A G29C C37G C45A the self-cleavage was 0.05.
With C10A C31U A39U the self-cleavage was 0.12.
Variant A25C G44A C46U has a self-cleavage of 0.06.
Work on G2U A16U G29A G35A G40U yielded a self-cleavage of 0.05.
With C3G A11C G33C U34C the self-cleavage was 0.01.
C8U C15A A16C U34G C37G gave a self-cleavage of 0.04.
U9C C31A U34C gave a self-cleavage of 0.01.
G30C G35A C42G showed a self-cleavage of 0.05.
Variant C13G C18U A26U has a self-cleavage of 0.07.
G5C U9A C13U U20G U28A A41C U43A gave a self-cleavage of 0.05.
Variant C3A G5U C10A U28C A39G has a self-cleavage of 0.06.
In the case of G17A U32G G44C, the self-cleavage is reported as 0.02.
With A16U G17C C31A G33U the self-cleavage was 0.03.
With A11G G21U G29C G33C the self-cleavage was 0.01.
For G7C C13G A14C G21C, the self-cleavage was 0.1.
In the case of C8A A25G G36C, the self-cleavage is reported as 0.44.
Work on G1C C8U C15U G35U yielded a self-cleavage of 0.02.
Work on G5U C10A G17U A26U G33U G40U C45U yielded a self-cleavage of 0.01.
Work on C15G G21A A25G yielded a self-cleavage of 0.03.
Variant C3G U9C U34C has a self-cleavage of 0.02.
In the case of G21C C23U C45G, the self-cleavage is reported as 0.58.
G5U G19A C23G gave a self-cleavage of 0.03.
With U20G U34C C42U the self-cleavage was 0.01.
C15G U20G G22A G35A C37A showed a self-cleavage of 0.03.
In the case of G5U C10A A14C, the self-cleavage is reported as 0.03.
In the case of A25G G40C C45A, the self-cleavage is reported as 0.07.
C15U A26U U34A G40A gave a self-cleavage of 0.08.
Variant C8U A26U G29C has a self-cleavage of 0.03.
With A6G A26C G27U the self-cleavage was 0.04.
With G21U A24G A26C the self-cleavage was 1.22.
Work on A4C C10A G19A G21A C37A U43G yielded a self-cleavage of 0.
C8G G30A C46U showed a self-cleavage of 0.04.
In the case of C13U G17A A26C G29U, the self-cleavage is reported as 0.15.
For G2C C13U A26U G33U, the self-cleavage was 0.08.
C15U C42G C46G gave a self-cleavage of 0.
G21U G35A C46U showed a self-cleavage of 0.24.
Variant C3A A4G C18U G30U has a self-cleavage of 0.06.
Variant A4U A24U U28A G33U G40C has a self-cleavage of 0.1.
Work on G1C C31A G35U C37U yielded a self-cleavage of 0.07.
G1C A12U U34A C46G showed a self-cleavage of 0.01.
In the case of G2U G27U U34A, the self-cleavage is reported as 0.02.
G22U G27U C42U gave a self-cleavage of 0.19.
With A11G A14G C18G A25U G33C the self-cleavage was 0.01.
G2C G7A U34C gave a self-cleavage of 0.04.
For A16U G30C C42A, the self-cleavage was 0.02.
With G7A U9C G27A C37U C45U the self-cleavage was 0.07.
In the case of A4U G21C C23U U28A C31U, the self-cleavage is reported as 0.03.
With A6G U32G C46A the self-cleavage was 0.08.
C10G G17U C18G G19A gave a self-cleavage of 0.04.
C15G C18G G30C C45A C46U showed a self-cleavage of 0.02.
With U9G G29A G35C the self-cleavage was 0.05.
A6G C15G A24U C37A U43A gave a self-cleavage of 0.09.
For A4G C8G G21U U28A G29A G33C, the self-cleavage was 0.03.
A11U C15A G30C C46A showed a self-cleavage of 0.02.
G35C A41G C42A gave a self-cleavage of 0.04.
In the case of G21A A24U U28C G30U C31U, the self-cleavage is reported as 1.14.
C8G G17U U34G G36U C46A gave a self-cleavage of 0.09.
For G2C A6U A25U A26U A41C, the self-cleavage was 0.09.
For C3A C31G U43G, the self-cleavage was 0.06.
G5U A6C U34G C37A C46G gave a self-cleavage of 0.01.
With G27A G36A C42G the self-cleavage was 0.05.
G17A G35A G40A showed a self-cleavage of 0.03.
In the case of G2U C3A G21C A39U, the self-cleavage is reported as 0.07.
Work on G2A C3A C42A yielded a self-cleavage of 0.61.
G7A G27U G33U gave a self-cleavage of 0.37.
Work on G21C G44U C46U yielded a self-cleavage of 0.07.
In the case of G2U C3U G7U, the self-cleavage is reported as 0.06.
G5C A12U G44A showed a self-cleavage of 0.04.
In the case of A11G C15A C18G C37G, the self-cleavage is reported as 0.
G21A C23G G33C A41U showed a self-cleavage of 0.06.
Work on A12U G29U C46A yielded a self-cleavage of 0.06.
Work on G1A U20C G22A C23U A25U yielded a self-cleavage of 0.2.
